Source: the supplement of paper PMC11741623
The list shows a part of the results. Interaction screen of human proteins with wild-type SARS-CoV-2 proteins by split-DHFR complementation in yeast, 1 µg/mL methotrexate. Value = fitness of the pair (three or more lineages) minus that of the viral protein without a human partner, on a scale set by negative (0) and fused positive (1) controls, mean of up to three cultures; higher = more likely to interact. Active = false discovery rate below 0.05 (one-sided t-test) in at least one culture. Nearly all pairs are not hits, and differences among them are mostly noise (correlation between cultures about 0.3); most hits were seen in one culture only. Human sequences are the Swiss-Prot entries looked up by gene name; the clone may be another isoform. NSP2 values were corrected by the authors for a growth advantage. Listed are human proteins with a hit and a random twelfth of the others.

How the values were obtained:
Assay in all cases: yeast fitness gain over the viral ORF with no human partner (scaled fitness); higher = more likely to interact
SARS-CoV-2 NSP13 = target: SARS-CoV-2 NSP13
Procedure: (§1)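 Split mouse DHFR complementation in pooled diploid yeast: human ORFeome clones carry one fragment and viral ORFs the other; barcoded lineages compete in 1 µg/mL methotrexate and fitness is read by barcode sequencing in up to three cultures.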

SARS-CoV-2 NSP8 = target: SARS-CoV-2 NSP8
Procedure: as §1

SARS-CoV-2 ORF3B = target: SARS-CoV-2 ORF3B
Procedure: as §1

SARS-CoV-2 ORF6 = target: SARS-CoV-2 ORF6
Procedure: as §1

SARS-CoV-2 ORF8 = target: SARS-CoV-2 ORF8
Procedure: as §1

SARS-CoV-2 NSP5 = target: SARS-CoV-2 NSP5
Procedure: as §1

SARS-CoV-2 ORF10 = target: SARS-CoV-2 ORF10
Procedure: as §1

SARS-CoV-2 ORF9B = target: SARS-CoV-2 ORF9B
Procedure: as §1

SARS-CoV-2 NSP2 = target: SARS-CoV-2 NSP2
Procedure: as §1

SARS-CoV-2 ORF7A = target: SARS-CoV-2 ORF7A
Procedure: as §1

Measured: yeast fitness gain

B1: FUT7, Q11130 (protein)
chain: MNNAGHGPTRRLRGLGVLAGVALLAALWLLWLLGSAPRGTPAPQPTITILVWHWPFTDQPPELPSDTCTRYGIARCHLSANRSLLASADAVVFHHRELQTRRSHLPLAQRPRGQPWVWASMESPSHTHGLSHLRGIFNWVLSYRRDSDIFVPYGRLEPHWGPSPPLPAKSRVAAWVVSNFQERQLRARLYRQLAPHLRVDVFGRANGRPLCASCLVPTVAQYRFYLSFENSQHRDYITEKFWRNALVAGTVPVVLGPPRATYEAFVPADAFVHVDDFGSARELAAFLTGMNESRYQRFFAWRDRLRVRLFTDWRERFCAICDRYPHLPRSQVYEDLEGWFQA
inactive: SARS-CoV-2 NSP13 = 0.0744 | SARS-CoV-2 NSP8 = 0.0691 | SARS-CoV-2 ORF3B 0.119 | SARS-CoV-2 ORF6 = 0.00431 | SARS-CoV-2 ORF8 = -0.132

B2: GPR37, O15354 (protein)
chain: MRAPGALLARMSRLLLLLLLKVSASSALGVAPASRNETCLGESCAPTVIQRRGRDAWGPGNSARDVLRARAPREEQGAAFLAGPSWDLPAAPGRDPAAGRGAEASAAGPPGPPTRPPGPWRWKGARGQEPSETLGRGNPTALQLFLQISEEEEKGPRGAGISGRSQEQSVKTVPGASDLFYWPRRAGKLQGSHHKPLSKTANGLAGHEGWTIALPGRALAQNGSLGEGIHEPGGPRRGNSTNRRVRLKNPFYPLTQESYGAYAVMCLSVVIFGTGIIGNLAVMCIVCHNYYMRSISNSLLANLAFWDFLIIFFCLPLVIFHELTKKWLLEDFSCKIVPYIEVASLGVTTFTLCALCIDRFRAATNVQMYYEMIENCSSTTAKLAVIWVGALLLALPEVVLRQLSKEDLGFSGRAPAERCIIKISPDLPDTIYVLALTYDSARLWWYFGCYFCLPTLFTITCSLVTARKIRKAEKACTRGNKRQIQLESQMNCTVVALTILYGFCIIPENICNIVTAYMATGVSQQTMDLLNIISQFLLFFKSCVTPVLLFCLCKPFSRAFMECCCCCCEECIQKSSTVTSDDNDNEYTTELELSPFSTIRREMSTFASVGTHC
inactive: SARS-CoV-2 NSP13 = 0.129 | SARS-CoV-2 NSP5 = -0.061 | SARS-CoV-2 ORF10 = -0.0087 | SARS-CoV-2 ORF6 = -0.0352 | SARS-CoV-2 ORF9B -0.116

B3: SMAD4, Q13485 (protein)
chain: MDNMSITNTPTSNDACLSIVHSLMCHRQGGESETFAKRAIESLVKKLKEKKDELDSLITAITTNGAHPSKCVTIQRTLDGRLQVAGRKGFPHVIYARLWRWPDLHKNELKHVKYCQYAFDLKCDSVCVNPYHYERVVSPGIDLSGLTLQSNAPSSMMVKDEYVHDFEGQPSLSTEGHSIQTIQHPPSNRASTETYSTPALLAPSESNATSTANFPNIPVASTSQPASILGGSHSEGLLQIASGPQPGQQQNGFTGQPATYHHNSTTTWTGSRTAPYTPNLPHHQNGHLQHHPPMPPHPGHYWPVHNELAFQPPISNHPAPEYWCSIAYFEMDVQVGETFKVPSSCPIVTVDGYVDPSGGDRFCLGQLSNVHRTEAIERARLHIGKGVQLECKGEGDVWVRCLSDHAVFVQSYYLDREAGRAPGDAVHKIYPSAYIKVFDLRQCHRQMQQQAATAQAAAAAQAAAVAGNIPGPGSVGGIAPAISLSAAAGIGVDDLRRLCILRMSFVKGWGPDYPRQSIKETPCWIEIHLHRALQLLDEVLHTMPIADPQPLD
inactive: SARS-CoV-2 NSP13 = -0.135 | SARS-CoV-2 NSP2 = -0.0423 | SARS-CoV-2 NSP8 = -0.131 | SARS-CoV-2 ORF3B 0.0518 | SARS-CoV-2 ORF6 = -0.0235 | SARS-CoV-2 ORF7A -0.0249 | SARS-CoV-2 ORF8 = -0.133

B4: RBMS1, P29558 (protein)
chain: MGKVWKQQMYPQYATYYYPQYLQAKQSLVPAHPMAPPSPSTTSSNNNSSSSSNSGWDQLSKTNLYIRGLPPHTTDQDLVKLCQPYGKIVSTKAILDKTTNKCKGYGFVDFDSPAAAQKAVSALKASGVQAQMAKQQEQDPTNLYISNLPLSMDEQELENMLKPFGQVISTRILRDSSGTSRGVGFARMESTEKCEAVIGHFNGKFIKTPPGVSAPTEPLLCKFADGGQKKRQNPNKYIPNGRPWHREGEVRLAGMTLTYDPTTAAIQNGFYPSPYSIATNRMITQTSITPYIASPVSAYQVQSPSWMQPQPYILQHPGAVLTPSMEHTMSLQPASMISPLAQQMSHLSLGSTGTYMPATSAMQGAYLPQYAHMQTTAVPVEEASGQQQVAVETSNDHSPYTFQPNK
inactive: SARS-CoV-2 NSP13 = 0.0297 | SARS-CoV-2 NSP2 = 0.0156 | SARS-CoV-2 NSP5 = -0.109 | SARS-CoV-2 ORF6 = -0.117 | SARS-CoV-2 ORF7A 0.0305 | SARS-CoV-2 ORF9B -0.0379

B5: ENC1, O14682 (protein)
chain: MSVSVHENRKSRASSGSINIYLFHKSSYADSVLTHLNLLRQQRLFTDVLLHAGNRTFPCHRAVLAACSRYFEAMFSGGLKESQDSEVNFDNSIHPEVLELLLDYAYSSRVIINEENAESLLEAGDMLEFQDIRDACAEFLEKNLHPTNCLGMLLLSDAHQCTKLYELSWRMCLSNFQTIRKNEDFLQLPQDMVVQLLSSEELETEDERLVYESAINWISYDLKKRYCYLPELLQTVRLALLPAIYLMENVAMEELITKQRKSKEIVEEAIRCKLKILQNDGVVTSLCARPRKTGHALFLLGGQTFMCDKLYLVDQKAKEIIPKADIPSPRKEFSACAIGCKVYITGGRGSENGVSKDVWVYDTLHEEWSKAAPMLVARFGHGSAELKHCLYVVGGHTAATGCLPASPSVSLKQVEHYDPTINKWTMVAPLREGVSNAAVVSAKLKLFAFGGTSVSHDKLPKVQCYDQCENRWTVPATCPQPWRYTAAAVLGNQIFIMGGDTEFSACSAYKFNSETYQWTKVGDVTAKRMSCHAVASGNKLYVVGGYFGIQRCKTLDCYDPTLDVWNSITTVPYSLIPTAFVSTWKHLPS
inactive: SARS-CoV-2 NSP13 = 0.032 | SARS-CoV-2 NSP2 = -0.117 | SARS-CoV-2 ORF6 = -0.227 | SARS-CoV-2 ORF9B 0.0295
